# From PubChem BioAssay AID2675 (National Center for Advancing Translational Sciences (NCATS), 2010)
# The campaign covered roughly 280,000 compounds. About 100 (0.036%) were called active. The inconclusive results got no clear call from the source; some entries with a clear call stand among them for comparison. The call rests on the fitted dose curve; in most records, active means well fitted inhibition curve with a large enough effect in the signal ratio, with a control signal flat (not every such curve was filed as active); inconclusive means small, poorly fitted or top-dose-only effect, or effect the other way, or a change in a side signal; inactive means no such curve, though single readings can be large or run the other way; the % refers to the signal ratio. Potencies of inconclusive entries are doubtful fits and often do not repeat. A note “side channel” means that the fit belongs to a control or component signal, not to the main read-out.
# Molecular target: Muscleblind-like protein 1 (Homo sapiens) (UniProt Q9NR56)
# Chain of UniProt Q9NR56 (Q9NR56 whole entry, looked up): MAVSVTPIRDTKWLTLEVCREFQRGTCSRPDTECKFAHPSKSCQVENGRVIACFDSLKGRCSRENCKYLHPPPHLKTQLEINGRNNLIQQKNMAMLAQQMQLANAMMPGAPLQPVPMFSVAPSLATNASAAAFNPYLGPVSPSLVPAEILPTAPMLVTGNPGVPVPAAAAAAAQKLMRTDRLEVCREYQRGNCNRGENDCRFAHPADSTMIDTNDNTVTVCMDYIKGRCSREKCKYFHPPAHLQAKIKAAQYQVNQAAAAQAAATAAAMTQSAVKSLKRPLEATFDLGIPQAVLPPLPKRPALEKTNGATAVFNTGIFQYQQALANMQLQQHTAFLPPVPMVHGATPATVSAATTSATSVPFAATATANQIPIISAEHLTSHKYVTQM
# Assay: qHTS Assay for Inhibitors of MBNL1-poly(CUG) RNA binding
# Details: TR-FRET MBNL1-His/biotin-(CUG)12 binding, 665/545 ratio; activity change, negative = inhibition: at 57.5 µM (top of the series)
# Summary of the method: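 TR-FRET between His-tagged MBNL1 and biotin-(CUG)12 RNA, detected with Tb anti-His antibody (0.055 ng/ul) and streptavidin-XL665 (5 nM), 60 min at room temperature. Compounds titrated 92 nM to 58 uM; 665/545 nm ratio normalized to buffer and complex controls.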
# On the % scale 0 is the no-effect control and ±100 the full control effect; potency means the concentration at half of the fitted maximal effect; tags describe the fitted curve by direction and shape or compound fluorescence and quenching.
SMILES,Potency,"activity change, negative = inhibition"
O=[N+]([O-])c1ccc(N2CCCC2)c(F)c1Br,"inconclusive: 3.55 µM [quencher, side channel, partial curve]",
NC(N)=N/N=C/c1ccc(N2CCOCC2)cc1,"inconclusive: 35.5 µM [quencher, side channel, single point]",
CCOP(=O)(OCC)c1cccc(OP(=O)(c2cccc([N+](=O)[O-])c2)c2cccc([N+](=O)[O-])c2)c1,"inconclusive: 17.8 µM [quencher, side channel, partial curve]",
O=C(N/N=C\c1ccc(COc2ccc([N+](=O)[O-])cc2)o1)c1cccc(Cl)c1,"inconclusive: 14.1 µM [quencher, side channel, partial curve]",
CCCSc1ccc2nc(NC(=O)OC)[nH]c2c1,"inconclusive: 31.6 µM [fluorescent, side channel, partial curve]",
COc1ccccc1C1=NCc2nnc(C)n2-c2ccc(Cl)cc21,"inconclusive: 0.891 µM [quencher, side channel, single point]",
COc1ccc(NC(=S)NC(NC(=O)CF)C(Cl)(Cl)Cl)cc1[N+](=O)[O-] (configuration not stated),"inconclusive: 15.8 µM [quencher, side channel, partial curve]",
O=c1[nH]c(O)c(N=Nc2cccc(S(=O)(=O)N3CCOCC3)c2)c(=O)[nH]1,"inconclusive: 3.55 µM [quencher, side channel, full curve]",
O=C(O)c1sccc1Oc1ccc(F)cc1[N+](=O)[O-],"inconclusive: 14.1 µM [quencher, side channel, partial curve]",
O=C1NCN(c2ccccc2)C12CCNCC2,inactive,
O=C1NC(=O)C(=Cc2cc3c(cc2[N+](=O)[O-])OCO3)C(=O)N1,"inconclusive: 12.6 µM [quencher, side channel, partial curve]",
CN1CCN(c2ccc(N)c(N3CCN(C)CC3)c2)CC1,"inconclusive: 126 µM [inhibitor, partial curve]",
C=CCc1c(C)nc(C)nc1N/N=C/c1ccc(N(C)C)cc1,"inconclusive: 12.6 µM [quencher, side channel, partial curve]",
C#CCN1C(=O)S/C(=C\c2ccc(N3CCOCC3)cc2C)C1=O,"inconclusive: 2 µM [quencher, side channel, full curve, poor fit]",
Cn1ccnc1P(=S)(c1nccn1C)c1nccn1C,inactive,
COc1ccc(-n2c(-c3ccco3)nc3ccccc3c2=O)cc1,"inconclusive: 25.1 µM [quencher, side channel, partial curve]",
CN1CCN(c2ccc(S(=O)(=O)C(F)(F)F)cc2[N+](=O)[O-])CC1,"inconclusive: 31.6 µM [quencher, side channel, single point]",
Oc1ccc2ccccc2c1CN1CC=C(c2ccccc2)CC1,inactive,
O=C(N/N=C1/CN2CCC1CC2)c1cc2ccccc2cc1O,inactive,
CC(C)NC(C)C(=O)C12CC3CC(CC(C3)C1)C2 (configuration not stated),inactive,
CCCNC(=O)c1c(N)n(CC2CCCO2)c2nc3ccccc3nc12 (configuration not stated),"inconclusive: 28.2 µM [quencher, side channel, single point]",

SMILES,Potency,"activity change, negative = inhibition"
CCCCCn1c(Sc2ccccc2)nc2c1c(=O)[nH]c(=O)n2C,"inconclusive: 39.8 µM [quencher, side channel, partial curve, poor fit]",
Cc1ccc(NC(=O)O/N=C/c2cccc([N+](=O)[O-])c2)cc1,"inconclusive: 25.1 µM [quencher, side channel, partial curve]",
CN1CC[C@]2(c3cccc(O)c3)Cc3nc4ccccc4cc3C[C@H]2C1,"inconclusive: 50.1 µM [inhibitor, single point]",
CN1C(=O)C(c2ccc([N+](=O)[O-])cc2[N+](=O)[O-])C(=O)N(C)C1=O,"inconclusive: 14.1 µM [quencher, side channel, partial curve]",
CN1CCN(c2ccc3nccnc3c2)CC1,"inconclusive: 25.1 µM [quencher, side channel, single point]",
O=S1(=O)N(CCN2CC=C(c3c[nH]c4cc(F)ccc34)CC2)c2cccc3c2N1CCC3,"inconclusive: 14.1 µM [quencher, side channel, partial curve]",
N#CC(C#N)=Cc1ccc([N+](=O)[O-])c(O)c1,"inconclusive: 17.8 µM [quencher, side channel, partial curve]",
CCOC(=O)c1ccc(-n2c(N)c(C(=O)NCC3CCCO3)sc2=S)cc1 (configuration not stated),"inconclusive: 8.91 µM [quencher, side channel, partial curve]",
O=C1NC(=O)C(=Cc2cc([N+](=O)[O-])ccc2N2CCCCC2)C(=O)N1,"inconclusive: 25.1 µM [quencher, side channel, partial curve]",
CN1CCN(c2ccc(Cl)cc2N)CC1,inactive,
COc1ccc(N2C(=O)/C(=C/c3ccc(N(C)C)o3)C(=O)NC2=S)cc1,"inconclusive: 1.41 µM [quencher, side channel, full curve]",
COc1ccccc1N1CCN(Cc2ccccc2Cl)CC1,"inconclusive: 79.4 µM [inhibitor, partial curve]",
CCOC(=O)c1c(/N=C/c2c(O)n(-c3cccc(C)c3)c(=O)[nH]c2=O)sc2c1CCCC2,"inconclusive: 31.6 µM [quencher, side channel, single point]",
Nc1c(C(=O)NCc2ccco2)c2nc3ccccc3nc2n1Cc1ccccc1,,inactive: 24.9% [at 11.5 µM]
CN1CCC(N(C)c2ccc(C(N)=O)cc2[N+](=O)[O-])CC1,"inconclusive: 14.1 µM [quencher, side channel, partial curve]",
O=C(Nc1nn[nH]n1)c1cccc([N+](=O)[O-])c1,"inconclusive: 15.8 µM [quencher, side channel, partial curve]",
N/C(=N\N=C/c1ccc(-c2ccc(O)c(C(=O)O)c2)o1)N[N+](=O)[O-],"inconclusive: 17.8 µM [quencher, side channel, partial curve]",
C#C[C@]1(O)CCC2C3CCC4=C/C(=N/OCC(=O)NC(C)C(=O)NC(CCSC)C(=O)O)CC[C@]4(C)C3CC[C@@]21C (some centres not stated),inactive,
CCC(CO)NC(=O)[C@@H]1C=C2c3cccc4[nH]cc(c34)C[C@H]2N(C)C1 (some centres not stated),"inconclusive: 17.8 µM [quencher, side channel, partial curve]",
O=[N+]([O-])c1ccc(CN2CCN(c3ccc(Cl)cc3)CC2)o1,"inconclusive: 15.8 µM [quencher, side channel, partial curve]",
COc1cc(/C=N/NC(=O)c2cnccn2)cc(OC)c1OC,"inconclusive: 22.4 µM [quencher, side channel, partial curve]",

SMILES,Potency,"activity change, negative = inhibition"
C=CCN1C(=O)/C(=C/c2cccs2)C(=O)NC1=S,inactive,
C[N+]1(CC(=O)OCCCc2ccccc2)CCCCC1,"inconclusive: 39.8 µM [quencher, side channel, single point]",
CCN(CC)c1ccc(N=Cc2c(O)[nH]c(=O)[nH]c2=O)cc1,"inconclusive: 12.6 µM [quencher, partial curve]",
Cc1ccsc1C(=O)C1CCCN(Cc2cn(C)nc2C)C1 (configuration not stated),"inconclusive: 79.4 µM [inhibitor, single point]",
O=c1cc(C(F)(F)F)c2cc3c4c(c2o1)CCCN4CCC3,inactive,
COc1ccc(-c2nc3ccc(C(=O)N4CCC5(CC4)OCCO5)cc3nc2-c2ccc(OC)cc2)cc1,"inconclusive: 17.8 µM [quencher, partial curve]",
Cc1ccc(/C=C2\C(=O)NC(=O)N(CC3CCCO3)C2=O)s1 (configuration not stated),inactive,
O=C(c1ccc(N2CCCCCC2)c([N+](=O)[O-])c1)N1CCC2(CC1)OCCO2,"inconclusive: 12.6 µM [quencher, side channel, partial curve]",
CN1C(=O)C(=Cc2ccc(N3CCOCC3)o2)C(=O)N(C)C1=O,"inconclusive: 2.82 µM [quencher, side channel, full curve]",
COc1ccccc1CCNCc1cc2c(cc1[N+](=O)[O-])OCO2,"inconclusive: 20 µM [quencher, side channel, partial curve]",
CCn1c(N)c(C(=O)NC)sc1=S,"inconclusive: 31.6 µM [quencher, side channel, partial curve]",
COc1c(C=C2C(=O)NC(=O)NC2=O)c(CCN(C)C(=O)c2ccccc2)cc2c1OCO2,inactive,
CCCCn1c(O)c(C(C)=NCCc2ccccc2)c(=O)[nH]c1=O,inactive,
CCC(=NCCN1CCOCC1)c1c(O)n(-c2ccccc2C)c(=O)[nH]c1=O,inactive,
O=C(C1CCC(=O)N1C1CCCC1)N1CCC2(CC1)OCCO2 (configuration not stated),inactive,
Cc1ccc(CC2C(=O)N(C)C(=O)N(C)C2=O)s1,inactive,
O=C(c1cccnc1)c1cc2ccccc2[nH]1,"inconclusive: 11.2 µM [quencher, side channel, partial curve]",
O=C(CN1CCN(CCO)CC1)Nc1ccc(Cl)cc1C(=O)c1ccccc1,inactive,
CNCC(O)c1ccc(O)cc1 (configuration not stated),"inconclusive: 100 µM [inhibitor, partial curve]",
COc1ccc(-n2nc(C(=O)NCC(=O)N3CCC4(CC3)OCCO4)c3ccccc3c2=O)cc1,"inconclusive: 22.4 µM [quencher, side channel, partial curve]",
